Reference: publication PMC3352084
Results are given in words; binding and its absence hold for the method and conditions named. Binding seen in cells or lysates may run through a third protein. Some entries that bind do so weakly or less than the wild type. Where a sequence is shown, tags or fusion partners need not be part of it.

Chains of the proteins cited; added tags and fusions are not shown.
UniProt O14356: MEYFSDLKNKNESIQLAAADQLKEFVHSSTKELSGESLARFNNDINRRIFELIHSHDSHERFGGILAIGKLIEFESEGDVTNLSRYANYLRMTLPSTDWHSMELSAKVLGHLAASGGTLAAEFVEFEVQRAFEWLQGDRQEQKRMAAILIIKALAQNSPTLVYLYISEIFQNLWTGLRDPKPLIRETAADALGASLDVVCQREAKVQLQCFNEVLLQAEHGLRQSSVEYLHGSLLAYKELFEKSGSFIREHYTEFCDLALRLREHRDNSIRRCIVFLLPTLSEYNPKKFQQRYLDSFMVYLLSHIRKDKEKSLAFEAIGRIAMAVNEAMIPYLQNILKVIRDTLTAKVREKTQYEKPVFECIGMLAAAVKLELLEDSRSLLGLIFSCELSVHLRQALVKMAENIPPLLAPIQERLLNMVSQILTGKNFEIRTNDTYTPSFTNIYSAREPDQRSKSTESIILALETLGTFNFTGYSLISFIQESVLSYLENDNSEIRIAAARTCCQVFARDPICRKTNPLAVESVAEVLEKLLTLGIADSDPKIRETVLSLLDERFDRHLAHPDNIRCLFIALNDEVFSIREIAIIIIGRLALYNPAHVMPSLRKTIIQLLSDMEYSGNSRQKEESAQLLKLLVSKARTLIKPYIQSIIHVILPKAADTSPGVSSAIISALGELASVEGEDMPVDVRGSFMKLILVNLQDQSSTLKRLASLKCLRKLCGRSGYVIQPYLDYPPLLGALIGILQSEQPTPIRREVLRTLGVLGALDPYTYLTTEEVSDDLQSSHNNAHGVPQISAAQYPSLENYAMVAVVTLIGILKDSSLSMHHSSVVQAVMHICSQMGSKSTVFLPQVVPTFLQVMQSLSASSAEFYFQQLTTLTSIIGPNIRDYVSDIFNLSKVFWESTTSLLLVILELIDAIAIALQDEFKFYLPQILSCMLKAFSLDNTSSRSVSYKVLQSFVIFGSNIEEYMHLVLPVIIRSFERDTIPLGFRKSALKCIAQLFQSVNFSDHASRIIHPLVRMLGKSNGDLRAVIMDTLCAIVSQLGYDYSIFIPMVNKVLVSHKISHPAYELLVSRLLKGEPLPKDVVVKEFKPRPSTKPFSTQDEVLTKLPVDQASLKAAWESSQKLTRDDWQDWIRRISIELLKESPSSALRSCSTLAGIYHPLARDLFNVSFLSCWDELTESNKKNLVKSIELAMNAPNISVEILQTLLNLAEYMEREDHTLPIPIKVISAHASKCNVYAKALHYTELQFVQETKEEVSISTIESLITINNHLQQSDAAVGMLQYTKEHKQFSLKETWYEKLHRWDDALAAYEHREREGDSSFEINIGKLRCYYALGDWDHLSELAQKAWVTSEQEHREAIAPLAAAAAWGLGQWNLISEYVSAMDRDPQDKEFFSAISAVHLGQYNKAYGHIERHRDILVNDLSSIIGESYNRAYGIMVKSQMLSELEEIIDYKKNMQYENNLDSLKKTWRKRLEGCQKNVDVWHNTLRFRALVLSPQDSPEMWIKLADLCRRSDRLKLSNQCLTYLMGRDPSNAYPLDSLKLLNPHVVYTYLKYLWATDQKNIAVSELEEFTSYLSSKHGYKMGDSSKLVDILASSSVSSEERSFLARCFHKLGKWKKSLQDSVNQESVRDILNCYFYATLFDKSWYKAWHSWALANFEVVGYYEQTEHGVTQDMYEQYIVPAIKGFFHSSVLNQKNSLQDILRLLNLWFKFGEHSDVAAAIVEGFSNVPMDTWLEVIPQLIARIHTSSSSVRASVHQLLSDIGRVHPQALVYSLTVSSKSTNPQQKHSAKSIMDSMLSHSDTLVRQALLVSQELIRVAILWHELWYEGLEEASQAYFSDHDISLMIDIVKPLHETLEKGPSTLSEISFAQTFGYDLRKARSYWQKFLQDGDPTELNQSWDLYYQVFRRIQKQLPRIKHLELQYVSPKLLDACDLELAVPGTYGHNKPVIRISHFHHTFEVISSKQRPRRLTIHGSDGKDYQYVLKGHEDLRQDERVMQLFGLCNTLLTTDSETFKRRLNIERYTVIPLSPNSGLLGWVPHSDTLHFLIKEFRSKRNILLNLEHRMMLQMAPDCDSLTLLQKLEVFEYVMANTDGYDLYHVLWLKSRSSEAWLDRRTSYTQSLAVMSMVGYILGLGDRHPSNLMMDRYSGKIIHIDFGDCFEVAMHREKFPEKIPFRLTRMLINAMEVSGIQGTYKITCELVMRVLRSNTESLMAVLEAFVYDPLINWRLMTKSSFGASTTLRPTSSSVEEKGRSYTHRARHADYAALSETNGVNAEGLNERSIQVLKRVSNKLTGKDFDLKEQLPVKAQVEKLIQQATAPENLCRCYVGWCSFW

Molecular target: FLAG-tagged Tor1 (catalytic subunit of TORC2) (Schizosaccharomyces pombe) (UniProt O14356)
Assay: co-IP; anti-FLAG immunoprecipitation from S. pombe extracts, immunoblot with anti-GFP; cells grown vegetatively in EMM2 for 24 h at 26°C, and G0 phase cells after 24 h nitrogen starvation at 26°C; extraction buffer 25 mM HEPES–KOH pH 7.5, 200 mM NaCl, 10% glycerol, 0.1% NP-40, 1 mM PMSF; non-FLAG-tagged strains as control

B1: GFP-tagged Ste20 (TORC2 regulatory subunit, Rictor homologue) (protein, UniProt Q09743 1-1309)
chain: MKPVRRGQTDTALDISSHAKTNGDFIKKMNTTDSKRLKLLEDLKGKLEVECKIRDGAETLLQVFDTNFKKETKERKEMLKKKCTDELESSKKKIEELVSSIESFQGENGEAKTGSTSLTRSASATVSRKSSLQEKYSTRFSYKAGCSDSCSVTVSGTGELIGPTRNAHSNLTPTVIQRIDFENVNEKNNSSSEDTQPNGKRPSSLQSNFSQFPLNPWLDNIYKACLEGSMKDVIDSSNNLCEYLHEHSDPAYAKNFSLITPTILSMLELNVSEVTASVYRLLRHLFLDATAFSCCQMLNLPWILSKSLLSGTDAYQIEREQAFRLIRTLYFLSSTEGHEDYLSGITRTIISICEHVSDVSRGIAVETLIELMIIRPKILFKANGLRVLMISLIDGSISENLAASAALALVYLLDDPESACYVNLPYDIGILLSPFTSSSSRDTFNSSEEQSEQAAKAMKSSAKVASVLLNSWSGLLALSTNDFQALRSIVDTLRVPSFAPRSDVIDLFFLIFQVEYSSWSESFLAGKRLTVVKNQAVSNDDNINMVNIPDGSNKKYMSLRQHFTAVLLFIFLELGLVESIVCMIRASDDPSASRKATYLLGEVLRLSDELLPIHLGAKIQSLPSLFNMASQFTAEDRFVATSVLQSIESLNRVKFHSATQPFSQTTSLLFKEQKTDGSFRGQRQVEHVKLKMGMQIDDSHFRSMLAETNVLATKNYQKWRWDTLVQIMEGPLLSPKRIDETLRTTKFMRRLLAFYKPFSNRFSSIQNTKPNQKFIKVGCLVFRTLLANPEGVKYLSESKVIKQIAESLSQIDGYSEQVSEPIFSNSRLQKTLTHGYFPMLKVLSSQKEGHAIMERWRIFTTLYHLTELRNRDDLIIIFLTNLDYRLEGHTRIIFSKALNTGQQAVRLTATKHLAALINSESANDNLNHWAISLLIFQLYDPCLEVCKTAVKVLNEVCARNENLLAQVVQLQPSLAHLGEIGSPLLLRFLATTVGFHYLSEINFIEHELDNWYHHRNIDYVDLLEQNFFLSFVSNLKIIDKKNNEPDENILPLHFYGELVKSPQGCEVLESSGHFESFMGTLVEFYDKPLGNEAIRQLKSALWAIGNIGKTDQGITFLINHDTIPLIVKYAENSLIPTVRGTAYFVLGLISRTSKGVEILESLHWYSLMSLMGTSQGICIPRHAGQVLSTPRRNVEFVNERVPTPEFSSLLSSLTNSEREVIRLVSNLSNHVLTNESARQLTKIRSKNAKVFSSKRLVKACMTILGKFHYRVQIQQFVFELFPYSVLLSSSTSQDLNESPSRPNNLSISA
B1 was tested, and the binding was “binds”.

B2: GFP-tagged Sin1 (TORC2 regulatory subunit) (protein, UniProt Q9P7Y9 1-665)
chain: MELTREKVLLLTFLRMQYSHILPDSIENRVISTEAPEWELDKSLQDLLIHDYDYSKTSFSSSPPIVANDTVSNVRKPSDTKQVNGAGGQVNHSRAEDSDYATSDLSESSDVGDDDNSCIFSFSKVPMQKDVASIKEEERLDPKISTLNNIDAIANLKLTNMVESSQAVNLTSSKQSSINQQSSVSTDYDDLRSISEESFHLSQGEIPLTFPMNSSLTDTEADAVVAVDALFPGKQRGTHNTVNKARSVSNAKAPTSALRALLEHKENSSQNGPLAENFATFSGHAESNALRLNIYFPSSESPSKPLFVELRKNVLVSEAIGYILLQYVNQQLVPPIEDEAQNPNYWNLRIVEDDGELDEDFPALDRVGPLSKFGFDAFALVKATPAQIKENQAAYPFKSKHPTSIPEANNKTHIRHTSSTSSQSQKQAQDVKDTLNTSHVVQVRLPPYGDNARFCNIEISKTTRLAMVLNQVCWMKQLERFKYTLRVAGSDTVLPLDKTFSSLDGNPTLELVKKKVRDKKGSTQQLPTSSPQNSVYGSIKKDAQSSTYNATDIMSSNTYQEFLVWKRQPVSFMGRHERLLAIDGEYVHIMPSESKNIFETPKTSSIHAGSIILCKQSKKSPCNFKMIVSKNRETKRYDFEVLSALEAAIIVSRIRALMNTVKKIN
With B2 the binding was “binds”.

B3: GFP-tagged Bit61 (TORC2 regulatory subunit) (protein, UniProt O74547 1-422)
chain: MVGRGSFSSTSSASSINWIPKNTKTSIESVSNTISLSENGQNQDLETVTTKESNVGDSDTTENIKSPFNGQWPFSRRSSQSSSHPVFEETHWSKHSKRPGKLNVLTPTSPSNVNAEVQSISTKTQLSLLNLSPHKHKKPKDGLDLSALQKTLNGSRNFLRGRRDAGGIFGASIPQSLVTNQIINGFGAASLAFAKLGKVRSPLEGRFNLVPISADETWLIVESEVCSLYSGEALHYSLEDLNGILILHLQALIRDTKMNEFVGHLETLFRKATKCLSDSLSPVPEELFLNRIIETWLFFFSSVLPYVQGVFLPIKTKLFDEQEKTQLPYEVNEFCSTNREKLNVHRLALMTFRDYMVLPIANRIQICIGRAESAENALDNAGEVFARLFQILSLLASVRTNDSKEQEITNLATKVRCLLIAS
For B3, the binding was “binds”.

B4: GFP-tagged Mip1 (TORC1 regulatory subunit, Raptor homologue) (protein, UniProt P87141 1-1313)
chain: MNDRISEVSGSSRARRSVLSYGTTETGSDRYTENSNIATENGVDTASSMIDGIQSGFPQPRHGFEEEYNNAEYINMLEQVFYMYYTDKRHRGVISKKNAEPTETIHDWRMRERLKTVSAALLVCLNIGVDPPDVIKPNPAAKYECWIDPFSLPASKALEAIGKNLQQQYETLSMRTRYRHYLDPAIEEVKKLCIGQRRNAKEERILFHYNGHGVPMPTASGEIWVFNKNYTQYIPVSLYDLQSWLGAPCIYVYDCSAAGNIIVNFNRFAEQRDKEALRIAKQNPNVLAMPSHTSCIQLAACGPKETLPMNPDLPADLFTSCLTSPIEISVRWYVLQNPFPNKLNLNMLLKIPGRLQDRRTPLGELNWIFTAITDTIAWNVFPKHLFRRLFRQDLMVAALFRNFLLAERIMLVHSCHPQSSPELPPTHDHPMWNSWDLAIDNCLSQLPDMLDAESKGIAYEYKHSTFFSEQLTAFEVWLSQGLISRKPPDQLPLVLQVLLSQVHRLRALILLSKFLDLGVWAVDLALSIGIFPYVLKLLQSPAIELKPVLVFIWARILAVDDSCQADLLKDNGYGYFVQILNPNSSIFPSSNISEHRAMCAFILSVFCRGFPQGQLACLNPQVLSHCLSHLNSPDSLLRQWACLCISQLWENYSEAKWSGTRDNAHVKLAEIIVDSVPEVRASVLTAFTTFLGFPEKTEEVVAVETYIAIAALAALSDASPLVRHELVIFLSHFVVNYKKQLMVVAYESSLADILEKKNHNSISASTIYETVWQAVLVLAADPSIEISLAAEAIINYVYQSMLNSELRESFLAFLLQHLPALHKASLSKDTDTNSVTSDPKPHPFVPSVSENKILNRSFSLTRSLKGLALSLAGSDRASELLSLNGENKPAESNLNHLTSAKVPGPPAFNELEYQSELDMPLTSYLFDWSRKYFTEPQMRPNEDDEPGSICYNQRLWRRNRNEKLIYRTRPLAEYSTNGRWNQQLMTFNNTIAPRKLMFHQFEDQLITLGDKDIIQVWDWRRNRCLNSFKTSASATTNVTDMQLLNEDDVALLMTGSSDGTIKLYRDYENEKVELVTSWNSLSDLVFGDRNASLLMSWQQNCGHLLVAGDVRVIRIWDASKEICYANLPVRSSNSITSLTSDLVGCNIIVAGFSDGVLRVYDKRLPARDSLTDVWKEHSSEIVNVEMQSSGMRELISASSDGEVKLWDIRMNHSLQTFSTDNSGLTSLTVHSHAPVYATGSSNQSIKIWDTLGQNINTFRENPRFLNQPKPSSLMCLKFHPHHLLLACGDNTDSRVNLYSCTKNEIHTDSPNEF
B4 was tested, and the binding was “no binding”.

B5: GFP-tagged Tco89 (TORC1 regulatory subunit) (protein, UniProt O74428 1-451)
chain: MERPSLSRRTSSSTVSTDGEGVYSRSTKERKRNFIVNSRLKRGGGHVRVNRSGRLGSVTMRPSALTRAHSQNPNSSLVNNSSAVSHLTKQRSLNDLHELNGPKHVAKNGLIPLTQRKPNCVWDDAPVDNDSTAGNLDSDSALPTPSVTTNEAADSSRASSPVTRVVAVHDNKKKIINSNISNAPPFNNTDVQASARPPAAGQDDSAADASTTKSSPVHNEVMAEPLPHSNNREVTQATNQPKWQIHSGSDIASEPPTLSRGNSLSLLANRKVPSTNVKKSQAELYDLGSSTSRTQQKLLIQRASSKFDIVEDDMDTNPSKRFSNPHTKHIMDLVRTQYRNVLRTRELIPEFLEKIRSSYSNNQNFDSQNAFNTSAAGTAGTREETISNGQNGIVASAETSKKDDGVQSASLNASMSARSHARQRSIHVPKTRKDTDYESIHQKLLQLWSQG
For B5, the binding was “no binding”.
